Like-named read-outs stand apart in the source and are kept apart here. These are yes or no findings as the source states them, for the method shown. Binding seen in cells or lysates may run through a third protein. Some entries that bind do so weakly or less than the wild type. For some of these results: Sequences can lack the tags named with a protein. One block for each molecule: values may come before it.
Experiments:
[1] = target: T1, mammalian STE20-like protein kinase 2 (MST2) (human (endogenous in HeLa)) (UniProt Q13188); test: co-IP; endogenous proteins from HeLa cell lysates (50 mM Tris-HCl pH 7.5, 0.15 M NaCl, 1 mM EDTA, 1% NP-40), 2 ug antibody and protein G Dynabeads, 2 h at 4 C, immunoblot; cells in some panels treated with siCTRL, siRASSF1A, siMST2 or siXPO6
T1 sequence: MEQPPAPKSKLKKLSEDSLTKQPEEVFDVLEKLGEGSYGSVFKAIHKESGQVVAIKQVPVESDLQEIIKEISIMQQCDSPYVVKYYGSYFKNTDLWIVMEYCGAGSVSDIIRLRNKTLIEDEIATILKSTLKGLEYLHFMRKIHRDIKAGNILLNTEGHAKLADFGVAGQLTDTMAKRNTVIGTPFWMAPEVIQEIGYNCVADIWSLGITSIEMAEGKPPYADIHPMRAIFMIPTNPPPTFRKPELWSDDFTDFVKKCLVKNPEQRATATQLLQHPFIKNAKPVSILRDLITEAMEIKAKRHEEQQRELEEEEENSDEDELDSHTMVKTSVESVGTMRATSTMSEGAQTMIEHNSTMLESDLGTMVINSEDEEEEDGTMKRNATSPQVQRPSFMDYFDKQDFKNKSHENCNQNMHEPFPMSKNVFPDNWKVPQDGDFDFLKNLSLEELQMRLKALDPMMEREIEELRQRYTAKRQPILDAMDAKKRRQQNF

Sequences of proteins named here, by UniProt entry; tags and fusion partners are left off. Residues count along the entry.
UniProt O14980: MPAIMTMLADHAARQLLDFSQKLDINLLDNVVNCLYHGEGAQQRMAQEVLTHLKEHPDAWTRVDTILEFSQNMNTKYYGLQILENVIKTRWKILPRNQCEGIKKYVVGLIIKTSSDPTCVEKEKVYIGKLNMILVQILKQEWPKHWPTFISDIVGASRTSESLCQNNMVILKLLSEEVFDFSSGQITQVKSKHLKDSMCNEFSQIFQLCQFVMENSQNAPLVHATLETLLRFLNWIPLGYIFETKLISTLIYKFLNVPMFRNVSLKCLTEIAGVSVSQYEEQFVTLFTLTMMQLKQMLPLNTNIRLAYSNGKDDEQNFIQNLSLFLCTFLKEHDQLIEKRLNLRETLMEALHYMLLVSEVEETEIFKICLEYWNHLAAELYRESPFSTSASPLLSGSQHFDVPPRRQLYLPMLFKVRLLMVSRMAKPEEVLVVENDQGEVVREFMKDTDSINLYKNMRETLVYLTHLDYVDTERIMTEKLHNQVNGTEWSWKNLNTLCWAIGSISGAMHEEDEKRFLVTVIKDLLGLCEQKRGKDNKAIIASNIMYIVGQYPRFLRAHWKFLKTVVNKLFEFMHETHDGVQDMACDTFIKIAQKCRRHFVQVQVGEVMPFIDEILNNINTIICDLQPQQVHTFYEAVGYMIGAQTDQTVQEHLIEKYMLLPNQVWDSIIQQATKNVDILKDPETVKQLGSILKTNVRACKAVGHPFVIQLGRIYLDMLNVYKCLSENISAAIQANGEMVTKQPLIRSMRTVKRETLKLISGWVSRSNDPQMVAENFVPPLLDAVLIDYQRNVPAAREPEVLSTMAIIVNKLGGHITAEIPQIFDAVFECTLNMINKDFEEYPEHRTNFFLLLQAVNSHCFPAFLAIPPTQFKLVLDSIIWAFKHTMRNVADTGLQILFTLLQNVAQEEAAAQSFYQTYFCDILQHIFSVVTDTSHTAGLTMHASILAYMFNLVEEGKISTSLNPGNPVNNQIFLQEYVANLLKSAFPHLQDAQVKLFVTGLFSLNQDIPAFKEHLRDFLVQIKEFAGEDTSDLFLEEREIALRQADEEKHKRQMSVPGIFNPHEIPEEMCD
UniProt P02545, residues 1-646: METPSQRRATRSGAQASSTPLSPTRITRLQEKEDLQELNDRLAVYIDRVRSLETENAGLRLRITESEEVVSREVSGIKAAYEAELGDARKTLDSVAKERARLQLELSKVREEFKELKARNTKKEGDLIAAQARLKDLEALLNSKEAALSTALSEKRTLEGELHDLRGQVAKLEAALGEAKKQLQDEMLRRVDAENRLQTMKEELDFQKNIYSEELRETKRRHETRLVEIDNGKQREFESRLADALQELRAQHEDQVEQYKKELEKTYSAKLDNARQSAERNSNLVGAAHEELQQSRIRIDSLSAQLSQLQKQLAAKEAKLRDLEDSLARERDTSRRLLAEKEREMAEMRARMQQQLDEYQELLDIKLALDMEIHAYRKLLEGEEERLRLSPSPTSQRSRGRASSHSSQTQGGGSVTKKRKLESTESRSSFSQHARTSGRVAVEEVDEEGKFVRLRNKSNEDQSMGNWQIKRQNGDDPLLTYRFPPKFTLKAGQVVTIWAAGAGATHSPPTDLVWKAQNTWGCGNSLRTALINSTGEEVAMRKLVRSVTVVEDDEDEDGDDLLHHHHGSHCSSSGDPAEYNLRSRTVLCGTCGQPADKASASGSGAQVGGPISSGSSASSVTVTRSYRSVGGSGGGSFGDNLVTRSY
UniProt P20700: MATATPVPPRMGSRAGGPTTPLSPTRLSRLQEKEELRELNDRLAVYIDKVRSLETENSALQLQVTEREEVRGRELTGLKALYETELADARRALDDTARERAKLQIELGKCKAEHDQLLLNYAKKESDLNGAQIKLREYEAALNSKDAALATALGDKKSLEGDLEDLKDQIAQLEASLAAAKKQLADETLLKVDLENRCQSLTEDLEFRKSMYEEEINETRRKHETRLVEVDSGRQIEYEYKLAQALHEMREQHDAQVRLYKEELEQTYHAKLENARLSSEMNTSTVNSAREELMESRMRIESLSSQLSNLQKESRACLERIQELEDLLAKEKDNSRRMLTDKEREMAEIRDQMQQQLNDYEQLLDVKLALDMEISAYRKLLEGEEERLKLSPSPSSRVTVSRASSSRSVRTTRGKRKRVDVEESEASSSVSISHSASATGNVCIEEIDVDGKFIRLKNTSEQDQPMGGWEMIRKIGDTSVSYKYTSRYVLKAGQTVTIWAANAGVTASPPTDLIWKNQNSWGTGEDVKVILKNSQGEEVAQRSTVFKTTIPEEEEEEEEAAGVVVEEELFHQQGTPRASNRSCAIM

[2] = target: T2, exportin-6 (XPO6) (human (endogenous in HeLa)) (UniProt Q96QU8); test: as above
T2 sequence: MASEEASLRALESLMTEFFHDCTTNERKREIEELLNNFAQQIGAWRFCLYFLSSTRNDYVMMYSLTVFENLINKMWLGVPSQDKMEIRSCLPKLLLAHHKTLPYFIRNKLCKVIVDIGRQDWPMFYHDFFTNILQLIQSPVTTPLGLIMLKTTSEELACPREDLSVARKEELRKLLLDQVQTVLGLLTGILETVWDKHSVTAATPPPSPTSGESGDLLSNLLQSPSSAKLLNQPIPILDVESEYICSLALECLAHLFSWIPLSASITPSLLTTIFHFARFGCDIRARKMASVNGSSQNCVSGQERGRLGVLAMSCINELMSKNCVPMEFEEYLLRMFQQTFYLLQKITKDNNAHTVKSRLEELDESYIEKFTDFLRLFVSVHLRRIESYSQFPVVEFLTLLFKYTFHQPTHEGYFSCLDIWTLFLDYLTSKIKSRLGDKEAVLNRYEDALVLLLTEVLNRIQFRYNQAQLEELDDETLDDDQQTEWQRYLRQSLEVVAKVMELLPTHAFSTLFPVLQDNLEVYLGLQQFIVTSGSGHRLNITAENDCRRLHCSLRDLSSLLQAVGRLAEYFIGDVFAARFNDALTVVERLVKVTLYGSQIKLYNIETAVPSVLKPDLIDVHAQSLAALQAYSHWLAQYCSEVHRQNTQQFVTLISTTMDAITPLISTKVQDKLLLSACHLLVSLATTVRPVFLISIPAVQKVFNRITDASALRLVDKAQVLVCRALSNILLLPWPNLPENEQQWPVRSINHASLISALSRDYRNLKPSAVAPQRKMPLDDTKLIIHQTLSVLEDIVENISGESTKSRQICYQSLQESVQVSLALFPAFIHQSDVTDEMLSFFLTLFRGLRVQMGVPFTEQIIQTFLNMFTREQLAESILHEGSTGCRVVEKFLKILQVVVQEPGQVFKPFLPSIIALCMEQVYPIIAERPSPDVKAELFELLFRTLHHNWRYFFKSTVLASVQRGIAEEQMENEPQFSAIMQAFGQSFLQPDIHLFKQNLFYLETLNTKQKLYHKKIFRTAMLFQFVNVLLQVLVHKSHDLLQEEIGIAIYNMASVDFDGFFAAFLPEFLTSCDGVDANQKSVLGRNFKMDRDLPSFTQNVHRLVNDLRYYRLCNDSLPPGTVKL

[3] = target: exportin-1 (CRM1/XPO1) (human (endogenous in HeLa)) (UniProt O14980); test: as above
[4] = target: T1, mammalian STE20-like protein kinase 2 (MST2) (human (endogenous in HeLa)); test: as above; remark: listed apart in the source
MYC-RASSF1A (aa 120-340) = target: T3, MYC-RASSF1A (aa 120-340) (UniProt Q9NS23); test: co-IP; MYC immunoprecipitation from HeLa cells expressing MYC-RASSF1A or its truncations, immunoblot for endogenous XPO6
T3 sequence: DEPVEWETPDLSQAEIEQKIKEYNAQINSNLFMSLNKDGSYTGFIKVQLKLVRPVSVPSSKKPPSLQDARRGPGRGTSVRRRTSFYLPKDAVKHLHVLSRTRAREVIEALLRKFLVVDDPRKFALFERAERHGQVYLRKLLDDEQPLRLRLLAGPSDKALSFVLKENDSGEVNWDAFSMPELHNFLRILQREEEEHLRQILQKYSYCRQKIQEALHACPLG

MYC-RASSF1A (aa 120-288) = target: T4, MYC-RASSF1A (aa 120-288) (UniProt Q9NS23); test: as above
T4 sequence: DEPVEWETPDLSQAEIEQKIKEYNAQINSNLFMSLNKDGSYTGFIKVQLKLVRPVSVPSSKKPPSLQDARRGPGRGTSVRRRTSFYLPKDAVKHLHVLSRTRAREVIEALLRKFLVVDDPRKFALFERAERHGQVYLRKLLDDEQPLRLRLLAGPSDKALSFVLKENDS

[5] = target: T5, full-length MYC-RASSF1A (aa 1-340) (UniProt Q9NS23); test: as above
T5 sequence: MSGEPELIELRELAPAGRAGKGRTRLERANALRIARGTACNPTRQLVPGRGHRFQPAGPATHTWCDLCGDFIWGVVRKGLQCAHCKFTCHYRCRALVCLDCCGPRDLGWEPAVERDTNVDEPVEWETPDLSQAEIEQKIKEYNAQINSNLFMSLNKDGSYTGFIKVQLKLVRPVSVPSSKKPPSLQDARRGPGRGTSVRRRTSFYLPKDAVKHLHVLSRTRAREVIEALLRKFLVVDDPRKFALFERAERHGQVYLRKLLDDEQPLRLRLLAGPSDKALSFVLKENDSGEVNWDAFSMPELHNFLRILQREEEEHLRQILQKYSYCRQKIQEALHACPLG

MYC-RASSF1A (aa 1-288) = target: T6, MYC-RASSF1A (aa 1-288) (UniProt Q9NS23); test: as above
T6 sequence: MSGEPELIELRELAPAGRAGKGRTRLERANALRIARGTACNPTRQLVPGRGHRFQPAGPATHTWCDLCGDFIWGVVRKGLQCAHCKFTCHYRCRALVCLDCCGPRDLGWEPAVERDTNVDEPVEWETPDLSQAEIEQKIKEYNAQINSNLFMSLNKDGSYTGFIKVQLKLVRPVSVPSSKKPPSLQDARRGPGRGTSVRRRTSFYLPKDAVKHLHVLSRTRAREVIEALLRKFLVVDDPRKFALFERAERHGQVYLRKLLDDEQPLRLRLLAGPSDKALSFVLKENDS

[6] = target: T7, RASSF1A (Ras association domain family 1 isoform A) (human (endogenous in HeLa)) (UniProt Q9NS23); test: co-IP; endogenous proteins from HeLa cell lysates (50 mM Tris-HCl pH 7.5, 0.15 M NaCl, 1 mM EDTA, 1% NP-40), 2 ug antibody and protein G Dynabeads, 2 h at 4 C, immunoblot; cells in some panels treated with siCTRL, siRASSF1A, siMST2 or siXPO6
T7 sequence: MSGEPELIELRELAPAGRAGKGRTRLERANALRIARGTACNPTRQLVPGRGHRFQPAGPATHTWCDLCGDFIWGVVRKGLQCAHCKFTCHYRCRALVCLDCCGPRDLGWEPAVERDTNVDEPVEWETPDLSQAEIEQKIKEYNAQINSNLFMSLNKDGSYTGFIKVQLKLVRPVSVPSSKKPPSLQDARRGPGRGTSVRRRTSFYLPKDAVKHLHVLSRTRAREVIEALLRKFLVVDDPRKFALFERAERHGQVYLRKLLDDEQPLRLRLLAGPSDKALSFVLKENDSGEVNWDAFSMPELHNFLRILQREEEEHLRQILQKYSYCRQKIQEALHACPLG

- binding [1]: binds
Molecule: Lamin A/C (from UniProt P02545 1-646)

- binding [1]: binds
Molecule: Lamin B1 (from UniProt P20700 1-586)

- binding [2]: binds
- binding [3]: no binding
- binding [4]: binds
B1: RASSF1A (Ras association domain family 1 isoform A) (protein, UniProt Q9NS23-2 1-340)
chain: MSGEPELIELRELAPAGRAGKGRTRLERANALRIARGTACNPTRQLVPGRGHRFQPAGPATHTWCDLCGDFIWGVVRKGLQCAHCKFTCHYRCRALVCLDCCGPRDLGWEPAVERDTNVDEPVEWETPDLSQAEIEQKIKEYNAQINSNLFMSLNKDGSYTGFIKVQLKLVRPVSVPSSKKPPSLQDARRGPGRGTSVRRRTSFYLPKDAVKHLHVLSRTRAREVIEALLRKFLVVDDPRKFALFERAERHGQVYLRKLLDDEQPLRLRLLAGPSDKALSFVLKENDSGEVNWDAFSMPELHNFLRILQREEEEHLRQILQKYSYCRQKIQEALHACPLG

- binding (MYC-RASSF1A (aa 120-340)): binds
- binding (MYC-RASSF1A (aa 120-288)): no binding
- binding [5]: binds
- binding (MYC-RASSF1A (aa 1-288)): no binding
- binding [6]: binds
B2: exportin-6 (XPO6) (protein, UniProt Q96QU8 1-1125)
chain: MASEEASLRALESLMTEFFHDCTTNERKREIEELLNNFAQQIGAWRFCLYFLSSTRNDYVMMYSLTVFENLINKMWLGVPSQDKMEIRSCLPKLLLAHHKTLPYFIRNKLCKVIVDIGRQDWPMFYHDFFTNILQLIQSPVTTPLGLIMLKTTSEELACPREDLSVARKEELRKLLLDQVQTVLGLLTGILETVWDKHSVTAATPPPSPTSGESGDLLSNLLQSPSSAKLLNQPIPILDVESEYICSLALECLAHLFSWIPLSASITPSLLTTIFHFARFGCDIRARKMASVNGSSQNCVSGQERGRLGVLAMSCINELMSKNCVPMEFEEYLLRMFQQTFYLLQKITKDNNAHTVKSRLEELDESYIEKFTDFLRLFVSVHLRRIESYSQFPVVEFLTLLFKYTFHQPTHEGYFSCLDIWTLFLDYLTSKIKSRLGDKEAVLNRYEDALVLLLTEVLNRIQFRYNQAQLEELDDETLDDDQQTEWQRYLRQSLEVVAKVMELLPTHAFSTLFPVLQDNLEVYLGLQQFIVTSGSGHRLNITAENDCRRLHCSLRDLSSLLQAVGRLAEYFIGDVFAARFNDALTVVERLVKVTLYGSQIKLYNIETAVPSVLKPDLIDVHAQSLAALQAYSHWLAQYCSEVHRQNTQQFVTLISTTMDAITPLISTKVQDKLLLSACHLLVSLATTVRPVFLISIPAVQKVFNRITDASALRLVDKAQVLVCRALSNILLLPWPNLPENEQQWPVRSINHASLISALSRDYRNLKPSAVAPQRKMPLDDTKLIIHQTLSVLEDIVENISGESTKSRQICYQSLQESVQVSLALFPAFIHQSDVTDEMLSFFLTLFRGLRVQMGVPFTEQIIQTFLNMFTREQLAESILHEGSTGCRVVEKFLKILQVVVQEPGQVFKPFLPSIIALCMEQVYPIIAERPSPDVKAELFELLFRTLHHNWRYFFKSTVLASVQRGIAEEQMENEPQFSAIMQAFGQSFLQPDIHLFKQNLFYLETLNTKQKLYHKKIFRTAMLFQFVNVLLQVLVHKSHDLLQEEIGIAIYNMASVDFDGFFAAFLPEFLTSCDGVDANQKSVLGRNFKMDRDLPSFTQNVHRLVNDLRYYRLCNDSLPPGTVKL

— PMC6694222
